Reference: PubChem BioAssay AID1508624 (National Center for Advancing Translational Sciences (NCATS), 2021)
Hit rate of the full screen: of about 48,000 compounds, about 120 (0.25%) were called active. Inconclusive results (about 4%) are left out. Calls follow the shape of the dose curve; as a rule, active = well fitted activation curve with a large enough effect; inconclusive = small, poorly fitted or top-dose-only effect, or another doubt; inactive = no such curve, though single readings can be large or run the other way. The list shows a part of the results.

Assay: Primary qHTS for Identification of Small Molecule Activators of Huntingtin-Antisense Promoter Activity; also: nearly all actives have a fitted effect of over 55% in size
Conditions: HEK293 HTT-AS promoter firefly luciferase reporter (activity 0% = vehicle and -100% = no light), 24 h; series mostly up to 57.5 µM; activity change, positive = activation: at the top concentration
Outline: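 HEK293 cells carrying firefly luciferase reporters were seeded at 2,500 per well in Opti-MEM and cultured for 24 h. They were then treated with compounds at up to 57.5 uM final for 24 h at 37 degrees C before Dual-Glo luminescence readout.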

Activity change, positive = activation, inactive:
CC12CC3CC(C)(C1)CC(N)(C3)C2, O=C(Nc1ccc(S(=O)(=O)N2CCOCC2)cc1)c1cc(Cl)ccc1NS(=O)(=O)c1ccc(Cl)s1 -7%, CN1C(C(=O)Nc2ccccn2)=C(O)c2sc(Cl)cc2S1(=O)=O -47.7%, O=C(CN1C(=O)CC(c2ccco2)Sc2ccccc21)Nc1cccc(C(F)(F)F)c1 (stereo not given) -40.5%, O=C(CSc1nc2c(c(=O)[nH]1)CCCC2)Nc1ccccc1C(F)(F)F -18.2%, CC(C)c1ccc(S(=O)(=O)c2cn(CC(=O)Nc3ccc(F)cc3)c3ccccc3c2=O)cc1 -6.69%, COc1ccc(Cl)cc1NC(=O)CSc1nnc2[nH]c(=O)cc(C)n12 -0.656%, CCOc1ccc(-c2nc(C(N)=O)c3c(n2)n(-c2ccc4c(c2)OCO4)c(=O)n3CC)cc1 -7.04%, CC1CNc2c(cccc2S(=O)(=O)N[C@@H](CCCN=C(N)N)C(=O)N2CC[C@@H](C)C[C@@H]2C(=O)O)C1 (stereo not given in full) -5.64%, COC(=O)c1cc(S(=O)(=O)N2CCN(c3cc(Cl)ccc3C)CC2)c[nH]1 -19.7%, CC1=C(C(N)=O)C(c2ccccc2F)n2nc(-c3ccc(Cl)cc3)nc2N1 (stereo not given) 0.221%, Cc1ccc(CNC(=O)Cn2cc3c(n2)-c2c(oc(C(=O)N4CCOCC4)c2C)CC3)cc1 -22.5%, Cc1cc(C)c2oc(C(=O)Nc3c(C(=O)c4ccccc4)oc4ccccc34)cc(=O)c2c1 6.26%, O=S(=O)(NCC(c1ccco1)N1CCOCC1)c1ccc(F)cc1 (stereo not given) -9.49%, COc1ccccc1CNc1ncnc2c1c(-c1ccccc1)cn2-c1ccc(Br)cc1 -13.9%, CCN(CC)c1ccc(NC(=O)Cn2c3ncccc3c(=O)n2-c2ccccc2)c(C)c1 -11.7%, COc1cc2c(=O)c(C(=O)c3ccc(F)cc3)cn(Cc3cccc(F)c3)c2cc1OC -10.1%, Cc1ccc(C(=O)NCCC(C)C)cc1NC(=O)c1nsc2ccccc12 -1.38%, O=C(Nc1c(C(=O)c2ccccc2)oc2ccccc12)c1ccc(F)cc1 -1.45%, O=C(CN1CCN(Cc2ccc(F)cc2Cl)C1=O)NCCc1ccc(Cl)cc1 -5.12%, CC(C)c1nc2ccc(C(=O)NCCCN3CCN(c4ccccc4)CC3)cc2o1 -19.3%, O=C1CN(C(=O)c2ccc(S(=O)(=O)N3CCCC3)cc2)C(c2ccccc2)c2cc(Cl)ccc2N1 (stereo not given) -12.7%, CCOc1ccc(C(=O)Nc2ccc3oc(-c4cccc5ccccc45)nc3c2)cc1 -18.2%, COc1ccc(OC)c(NC(=O)N2CC(C)Oc3ccc(C)cc32)c1 (stereo not given) -24.2%, Cc1ccc(C(=O)c2cn(CC(=O)NCc3ccccc3)c3nc(C)ccc3c2=O)cc1 -4.04%, Cc1cc(C)n(CC(=O)Nc2cc(F)ccc2F)c(=O)c1C#N -16.1%, COc1ccc(CCN(C)CCCOc2ccc(S(=O)(=O)c3[nH]c4ccccc4c3C(C)C)cc2)cc1OC -1.6%, COc1ccc(C(=O)Nc2nc(-c3nnn(-c4ccc(F)cc4F)c3C)ns2)cc1 -41.4%, Cc1ccc(O)c(Nc2nc3ccccc3c3nncn23)c1 -10.7%, CCC(Sc1nc2cc(OC)c(OC)cc2c(=O)n1Cc1ccc(OC)cc1)C(=O)NCCOC (stereo not given) -6.74%, CC(=O)c1ccc(NC(=O)c2cc(S(=O)(=O)N3CCOCC3)ccc2C)cc1 -36.1%, Cc1cc(N2CCN(c3ccccc3)CC2)n2cnnc2n1 -28.5%, COc1ccc(CCNC(=O)c2ccc(Cn3c(=O)c4ccccc4n(Cc4ccc(F)cc4Cl)c3=O)cc2)cc1OC 7.5%, Cc1nc(-c2ccc(F)cc2)sc1CCNC(=O)c1ccc(OC(C)C)cc1 -28.3%, CCN1CCN(C(=O)c2ccc3c(c2)N(Cc2ccccc2)C(=O)c2ccccc2S3(=O)=O)CC1 -7.88%, CCOc1ccc(-c2cn3c(n2)sc2cc(C(=O)N4CCCC(C)C4)ccc23)cc1 (stereo not given) 2.84%, CCCN1CCN(CCCNC(=O)c2ccc3c(c2)sc2nc(-c4ccc(OCC)cc4)cn23)CC1 -3.81%, Cc1nc(N2CCOCC2)c2c(C(=O)N(C)c3ccccc3)c(C)oc2n1 -5.49%, CC(C)Cc1nn2c(=O)cc(COC(=O)c3cccc(NS(C)(=O)=O)c3)nc2s1 5.29%, Cc1cc(C)cc(OCC(=O)N(Cc2ccc(Cl)cc2)C2CCS(=O)(=O)C2)c1 (stereo not given) -15.3%, COc1ccccc1CNC(=O)C1CCN(C2=NS(=O)(=O)C(c3ccc(C)c(C)c3)=C2C)CC1 -37.5%, Cc1ccccc1CNC(=O)C(=O)NCC(c1ccc2c(c1)OCO2)N1CCOCC1 (stereo not given) -16%, CN(CCCNC(=O)Cn1ncc2c([nH]c3ccccc32)c1=O)Cc1ccccc1 -20.5%, Cc1ccc2c(c1)-c1c(cnn1CC(=O)N1CCN(c3cc(C)ccc3C)CC1)CO2 -10.5%, Cc1ccccc1S(=O)(=O)Cc1ccc(C(=O)NCCc2ccccc2)o1 19.5%, CC1CCN(c2csc3ccc(F)cc3c2=O)CC1 24.7%, O=C(NCc1ccc(Cl)cc1)c1ccc(CNS(=O)(=O)c2ccc(F)cc2)cc1 -9.98%, CC(C)N1CCc2c(sc(NC(=O)c3ccc(S(=O)(=O)N(C)C4CCCCC4)cc3)c2C(N)=O)C1 -19.4%, COCCc1nn2c(=O)cc(COC(=O)c3ccco3)nc2s1 10.6%, Cc1cccc(-c2nc(CS(=O)CC(=O)NCc3ccc(Cl)cc3)c(C)o2)c1 (stereo not given) -13.5%, O=C1CN(C(=O)c2ccc(S(=O)(=O)N3CCCCC3)cc2)C(c2ccc(F)cc2)c2cc(Cl)ccc2N1 (stereo not given) -22.3%, O=C(NCCc1ccccc1)c1ccc(CSc2nc3cccnc3n2Cc2ccccc2F)cc1 -5.5%, CCN(CC)CCn1c(=N)n(CCOc2ccccc2Cl)c2ccccc21 -24.7%, CCOC(=O)C(=O)CCc1ccccc1 1.66%, COc1cccc(-c2cn3c(n2)sc2cc(C(=O)NCc4ccccc4F)ccc23)c1 29.7%, CCOC(=O)c1cc(-c2ccccc2)n(CC(=O)NCc2ccc(C)cc2)c1C -13.8%, Cc1ccc2nc(-c3cccc(NC(=O)c4cccc5c(Cl)cccc45)c3)oc2c1 16.9%, CCOC(=O)c1c(C)oc2nc(C)nc(NCC3CCN(Cc4ccccc4C)CC3)c12 -6.9%, O=C(NCC(c1cccnc1)N1CCOCC1)C(=O)Nc1ccc(Cl)cc1 (stereo not given) -9.87%, COc1ccc(-c2[nH]ncc2C(=O)NCc2cccc(Cl)c2)cc1 -17.6%, COc1ccc(CNC(=O)CCCN2C(=O)CCn3nc(-c4cn(C)c5ccccc45)cc32)cc1 -28.3%, Cc1c(Cl)cccc1NC(=O)CSc1nc(=O)[nH]c2c1CCCC2 -26.3%, O=C(NCCC1=CCCCC1)C1CCN(C(=O)N2CCOc3ccccc32)CC1 -19.6%, COc1ccc(OC)c(NC(=O)Cn2ncc3c2-c2ccccc2OC3)c1 -22.3%, O=C(NCCc1ccc(Cl)cc1)C1(c2cccs2)CCOCC1 -22.1%, Cc1ccc(-n2c(=O)c3cccnc3n2CC(=O)Nc2ccc(C)cc2Cl)cc1 -7.27%, CC(=O)Nc1ccc(NC(=O)CSc2cn(CC(=O)N(C(C)C)C(C)C)c3ccccc23)cc1 -10.8%, Cc1ccc(-c2noc(CN(C3CCCCC3)S(=O)(=O)c3ccc(F)cc3)n2)cc1 -30.7%, Cc1cc2oc(C(=O)NCCc3ccc(S(N)(=O)=O)cc3)cc(=O)c2cc1C -9.56%, COc1cc(C(=O)NCc2nnnn2-c2ccc(C)c(C)c2)cc(OC)c1OC -5.92%, COc1ccc(OCCn2cc(C(=O)c3ccco3)c3ccccc32)cc1 -24.6%, CCC(=O)N1CCc2cc(S(=O)(=O)NC(Cc3ccccc3)C(=O)NCc3ccc(C)cc3)ccc21 (stereo not given) -10%, CCOc1ccccc1CN1C(=O)c2ccccc2C1C(=O)NC1CCCCCC1 (stereo not given) -25.5%, COC(=O)c1cc2occc2n1Cc1nc(-c2ccccc2C)oc1C 16.3%, CC(C)c1ccc(NC(=O)CSC2=Nc3ccccc3C3=NC(CCC(=O)NCc4ccc(F)cc4)C(=O)N23)cc1 (stereo not given) -38.2%, CCC(C)Sc1nc2c([nH]c3ccccc32)c(=O)n1C (stereo not given) -11.7%, Cc1ccccc1COC(=O)c1ccc(-c2nnn(Cc3ccccc3F)n2)cc1 10.2%, CCN1CCN(C(=O)c2ccc3c(c2)N(Cc2c(F)cccc2Cl)C(=O)c2ccccc2S3)CC1 -16.7%, O=c1c(-c2cc(-c3ccc(F)cc3)nc3c2COc2ccc(Cl)cc2-3)coc2ccc(F)cc12 -3.42%, CC(=O)N1c2ccc(S(=O)(=O)N3CCN(c4cc(Cl)ccc4C)CC3)cc2CC1C (stereo not given) -5.03%, C#C[C@]1(O)CC[C@H]2[C@@H]3CCC4=Cc5oncc5C[C@]4(C)[C@H]3CC[C@@]21C -33.7%, COc1ccc(CNc2nc(-c3ccco3)nn2S(=O)(=O)c2ccc3ccccc3c2)cc1OC -19.5%, Cc1ccc(C)c(NC(=O)Cn2c(=O)n(Cc3nc(C)no3)c(=O)c3cc4c(cc32)OCO4)c1 -8.68%, CCc1ccc(NC(=O)Cn2c(=O)n(Cc3ccc4c(c3)OCO4)c(=O)c3oc4ccccc4c32)cc1 -31.6%, CCOC(=O)CNC(=O)CC(c1cc(OC)c(OC)c(OC)c1)N1Cc2ccccc2C1=O (stereo not given) -6.79%, CC(=O)SCC(CC(=O)c1ccc(C)cc1)C(=O)O (stereo not given) 16.3%, CCOC(=O)c1ccc(NC(=O)CCn2c(=O)oc3ccccc32)cc1 -17.2%, CCN(CC)c1ccc(C(=O)Nc2ccc3nc(N(CC)CC)cc(C)c3c2)cc1 -30.9%, Cc1ccc2[nH]c(CSc3nnc(NC(=O)COc4ccccc4Cl)s3)cc(=O)c2c1 -19.1%, CN(Cc1ccccc1)C(=O)Cn1c(=O)c2cccn2c2ccc(F)cc21 8.41%, CCc1ccc(NC(=O)C2CCCN(S(=O)(=O)c3cccc4cccnc34)C2)cc1 (stereo not given) -19.5%, Cc1ccc(CNC(=O)c2sc3ncnc(N(C)C4CCCCC4)c3c2C)cc1 -27.3%, O=S(=O)(NCC(c1ccco1)N1CCOCC1)c1ccc(Cl)cc1 (stereo not given) -10.6%, Cc1ccccc1NC(=O)C1CCN(S(=O)(=O)c2ccccc2)CC1 -18.3%, O=C(CCCCCn1c(=O)[nH]c2ccccc2c1=O)N1CCN(c2ccc(Cl)cc2)CC1 -0.343%
